{"source": "PubChem BioAssay AID504333", "about": "(National Center for Advancing Translational Sciences (NCATS), 2011)", "note": "Several values for one entry are separate records, joined by “and”; a condition that tells them apart may be missing. Identical values can stand only once. Screen size: about 360,000 compounds; about 16,000 (4.4%) were called active. The shares of active, inactive and inconclusive entries below differ from those in the screen. Calls come from the whole dose curve; as a rule, active = well fitted inhibition curve with a large enough effect; inconclusive = small, poorly fitted or top-dose-only effect; inactive = no such curve, though single readings can be large or run the other way. Potencies of inconclusive entries are doubtful fits and often do not repeat. % is set by controls: 0 for no effect and ±100 for the full control effect; potency is the fitted concentration of half-maximal effect; tags give direction and shape of the fitted curve.", "data": [{"target": "Bromodomain adjacent to zinc finger domain protein 2B (Homo sapiens) (UniProt Q9UIF8)", "sequence (Q9UIF8 whole entry, looked up, the tested form may be a part)": "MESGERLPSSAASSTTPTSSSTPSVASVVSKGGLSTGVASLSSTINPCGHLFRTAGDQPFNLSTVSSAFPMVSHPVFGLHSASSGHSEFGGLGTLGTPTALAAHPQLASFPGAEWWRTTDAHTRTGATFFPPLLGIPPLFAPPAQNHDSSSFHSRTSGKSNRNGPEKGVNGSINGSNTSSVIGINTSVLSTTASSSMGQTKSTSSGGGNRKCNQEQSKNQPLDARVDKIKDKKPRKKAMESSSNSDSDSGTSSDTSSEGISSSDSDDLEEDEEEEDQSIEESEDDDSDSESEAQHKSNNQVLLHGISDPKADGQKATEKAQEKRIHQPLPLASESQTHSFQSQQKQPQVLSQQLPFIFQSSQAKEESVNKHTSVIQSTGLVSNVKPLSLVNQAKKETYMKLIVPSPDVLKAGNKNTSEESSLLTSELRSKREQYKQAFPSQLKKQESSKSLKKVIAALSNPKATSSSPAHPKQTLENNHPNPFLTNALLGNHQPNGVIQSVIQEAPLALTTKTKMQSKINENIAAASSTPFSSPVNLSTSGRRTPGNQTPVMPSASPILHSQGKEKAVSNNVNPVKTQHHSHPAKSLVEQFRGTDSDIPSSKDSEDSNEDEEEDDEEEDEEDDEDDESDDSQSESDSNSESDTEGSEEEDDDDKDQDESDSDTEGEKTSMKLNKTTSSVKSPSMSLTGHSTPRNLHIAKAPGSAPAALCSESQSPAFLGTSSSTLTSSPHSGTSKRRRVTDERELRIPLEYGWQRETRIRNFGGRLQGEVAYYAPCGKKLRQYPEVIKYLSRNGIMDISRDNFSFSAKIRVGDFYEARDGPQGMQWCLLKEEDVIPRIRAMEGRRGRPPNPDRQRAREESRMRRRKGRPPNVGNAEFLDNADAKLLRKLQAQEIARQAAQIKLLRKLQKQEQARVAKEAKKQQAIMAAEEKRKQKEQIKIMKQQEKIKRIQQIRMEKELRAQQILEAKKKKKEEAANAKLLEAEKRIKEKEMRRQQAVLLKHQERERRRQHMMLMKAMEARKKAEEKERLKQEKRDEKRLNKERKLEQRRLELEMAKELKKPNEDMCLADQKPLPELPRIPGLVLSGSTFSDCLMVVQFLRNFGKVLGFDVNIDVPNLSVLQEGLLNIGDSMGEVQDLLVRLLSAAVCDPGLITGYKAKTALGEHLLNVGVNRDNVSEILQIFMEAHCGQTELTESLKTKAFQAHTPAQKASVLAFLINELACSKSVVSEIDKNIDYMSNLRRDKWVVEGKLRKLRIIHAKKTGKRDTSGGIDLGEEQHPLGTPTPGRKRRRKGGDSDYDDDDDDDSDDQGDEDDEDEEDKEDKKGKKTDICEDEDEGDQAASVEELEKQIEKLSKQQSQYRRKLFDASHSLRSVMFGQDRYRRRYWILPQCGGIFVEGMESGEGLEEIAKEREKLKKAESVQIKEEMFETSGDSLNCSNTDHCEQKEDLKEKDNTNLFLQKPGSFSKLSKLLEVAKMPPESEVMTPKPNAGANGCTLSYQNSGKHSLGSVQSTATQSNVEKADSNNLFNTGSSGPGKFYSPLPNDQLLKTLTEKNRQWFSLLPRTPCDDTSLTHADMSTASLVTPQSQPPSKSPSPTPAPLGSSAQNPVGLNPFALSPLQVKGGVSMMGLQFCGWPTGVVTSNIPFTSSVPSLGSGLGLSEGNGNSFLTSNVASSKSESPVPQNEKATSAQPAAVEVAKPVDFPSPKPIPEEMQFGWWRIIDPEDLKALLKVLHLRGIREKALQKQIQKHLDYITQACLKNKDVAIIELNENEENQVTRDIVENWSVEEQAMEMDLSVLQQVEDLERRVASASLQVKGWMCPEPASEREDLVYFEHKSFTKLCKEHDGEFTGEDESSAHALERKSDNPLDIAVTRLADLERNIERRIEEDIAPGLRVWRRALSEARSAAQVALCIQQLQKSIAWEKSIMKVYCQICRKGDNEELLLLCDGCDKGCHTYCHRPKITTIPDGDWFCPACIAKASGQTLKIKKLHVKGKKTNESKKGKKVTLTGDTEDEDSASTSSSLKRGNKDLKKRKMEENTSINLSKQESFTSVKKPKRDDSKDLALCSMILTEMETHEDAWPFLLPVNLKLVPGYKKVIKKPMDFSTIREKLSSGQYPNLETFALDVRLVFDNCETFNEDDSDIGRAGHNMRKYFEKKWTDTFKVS", "test": "qHTS Assay for Inhibitors of BAZ2B; note: nearly all actives have a fitted effect of over 60% in size", "conditions": "AlphaScreen BAZ2B-H3K14Ac peptide displacement; activity change, negative = inhibition: at 114 µM (top of the series)", "outline": "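Inhibition is scored as reduced AlphaScreen emission. The BAZ2B/b-H3(5-23)K14Ac complex (50 nM each) in PBS pH 7.4, 0.01% Tween-20 meets compound (up to 110 uM) for 30 min at RT before bead addition.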", "values": [{"molecule": "O=C(O)c1cccnc1Sc1ccccc1Cl", "Potency": "inconclusive: 89.1 µM [inhibitor, single point]"}, {"molecule": "O=C1CCCN1c1ccc(S(=O)(=O)N2CCN(c3ccccc3)CC2)cc1", "activity change, negative = inhibition": "inactive: -15.7%"}, {"molecule": "Cc1cc(C)c(C(=O)N2CCCC(Nc3ccc(F)cc3)C2)o1", "note": "(configuration not stated)", "Potency": "inconclusive: 56.2 µM [inhibitor, partial curve]"}, {"molecule": "O=C(O)c1cccc(-n2c(-c3cnccn3)n[nH]c2=S)c1", "Potency": "inconclusive: 89.1 µM [inhibitor, single point]"}, {"molecule": "CCOc1nc(Nc2ccc([N+](=O)[O-])cc2)nc(NC(C)(C)C)n1", "Potency": "inconclusive: 20 µM [inhibitor, single point]"}, {"molecule": "O=C(CSc1ccc2nnc(-c3ccc(F)cc3)n2n1)NCC1CCCO1", "note": "(configuration not stated)", "activity change, negative = inhibition": "inactive: 2.65%"}, {"molecule": "CC(=O)C1=NN(c2ccccc2)C(c2ccc3c(c2)OCO3)N1c1ccc(N2CCOCC2)cc1", "note": "(configuration not stated)", "Potency": "active: 28.2 µM"}, {"molecule": "COc1cccc(NC(=O)CN2CCc3ccccc3C2)c1", "activity change, negative = inhibition": "inactive: 1.85%"}, {"molecule": "COc1ccc(/C=C2/C(=O)OCc3cc(OC)c(OC)cc32)c(OC)c1", "activity change, negative = inhibition": "inactive: -4.92%"}, {"molecule": "CCOc1ccccc1NS(=O)(=O)c1ccc(-c2cnc(C3CC3)o2)cc1", "Potency": "inconclusive: 79.4 µM [inhibitor, single point] and inconclusive: 70.8 µM [inhibitor, single point]"}, {"molecule": "O=C(CSc1nc2ccc(Cl)cc2[nH]1)NCc1ccco1", "Potency": "inconclusive: 89.1 µM [inhibitor, single point]"}, {"molecule": "C/C(=N\\NC(=O)c1cc(C)nc2ccccc12)c1cccs1", "activity change, negative = inhibition": "inactive: -2.58%"}, {"molecule": "Cc1[nH]n(-c2ccccc2)c(=O)c1N=Nc1cccc(Cl)c1", "Potency": "active: 22.4 µM"}, {"molecule": "Cc1ccc(-n2ncc3c2CCCC3NC(=O)c2csnn2)cc1C", "note": "(configuration not stated)", "Potency": "inconclusive: 15.8 µM [inhibitor, partial curve, poor fit]"}, {"molecule": "COc1ccc(C(=O)Nc2ccccc2N2CCCC2)cc1", "Potency": "inconclusive: 79.4 µM [inhibitor, single point]"}, {"molecule": "Cc1cc(C)nc(-n2ncc3c2CC(c2ccc(C(C)C)cc2)CC3=O)n1", "note": "(configuration not stated)", "Potency": "inconclusive: 79.4 µM [inhibitor, single point]"}, {"molecule": "CO/N=C/c1ccc(N2CCN(C(=O)c3ccc(F)cc3)CC2)c([N+](=O)[O-])c1", "Potency": "inconclusive: 44.7 µM [inhibitor, partial curve]"}, {"molecule": "Cc1ccc(-c2csc(=Nc3ccc(F)cc3)n2Cc2ccc3c(c2)OCO3)cc1C", "Potency": "active: 4.47 µM"}, {"molecule": "COc1cc(NC(=O)c2ccccc2)c(OC)cc1NC(=O)CN1C(=O)NC2(CCCCC2)C1=O", "Potency": "inconclusive: 89.1 µM [inhibitor, single point]"}, {"molecule": "CC(C)(C)C(=O)Cn1c(=N)n(Cc2ccccc2)c2ccccc21", "Potency": "inconclusive: 79.4 µM [inhibitor, single point]"}, {"molecule": "N#Cc1ccccc1NC(=O)C1SC(=Nc2ccccc2)C(C(=O)Nc2ccc(Cl)cc2)=C1N", "note": "(configuration not stated)", "Potency": "inconclusive: 44.7 µM [inhibitor, partial curve]"}, {"molecule": "C=Cc1ccc(Cn2c(C(=O)O)c(CNCc3ccccc3)c3ccc(C)cc32)cc1", "Potency": "active: 50.1 µM"}, {"molecule": "CC(=O)C1=NN(c2ccccc2)C(c2cccs2)N1c1ccc(N(C)C)cc1", "note": "(configuration not stated)", "Potency": "active: 44.7 µM"}, {"molecule": "Cc1c(C)n(C)c2ccc(C(=O)NCCCN3CCN(c4ccc(F)cc4)CC3)cc12", "Potency": "active: 35.5 µM"}, {"molecule": "CCOc1ccc(S(=O)(=O)N2CCC(C(=O)N3CCCCCC3)CC2)cc1C", "activity change, negative = inhibition": "inactive: -19.6%"}, {"molecule": "Cc1ccc(C)c(NC(=O)c2ccccc2C(=O)c2ccccc2)c1", "Potency": "inconclusive: 70.8 µM [inhibitor, single point]"}, {"molecule": "Cc1ccc(N(C(=O)CNC(=O)c2ccco2)C(C(=O)NC2CCCC2)c2cccnc2)c(C)c1", "note": "(configuration not stated)", "activity change, negative = inhibition": "inactive: -2.95%"}, {"molecule": "COc1cc(NC(=O)c2cnc(N)s2)cc(C(=O)Nc2cccc(C(F)(F)F)c2)c1", "Potency": "active: 20 µM"}, {"molecule": "O=c1c(N2CCc3ccccc3C2)csc2ccccc12", "activity change, negative = inhibition": "inactive: -34.6%"}, {"molecule": "Cc1[nH]n(-c2ccccc2)c(=O)c1CCOC(=O)c1ccc(C(F)(F)F)cc1", "Potency": "inconclusive: 89.1 µM [inhibitor, single point]"}, {"molecule": "CN(C)c1ccc(C2NCC(CCl)O2)cc1", "note": "(configuration not stated)", "Potency": "inconclusive: 89.1 µM [inhibitor, single point]"}, {"molecule": "CC(=O)Nc1ccc(NC(=O)c2oc3ccc4c(c3c2C)C(=O)CC(C)(C)O4)cc1", "activity change, negative = inhibition": "inactive: -31%"}, {"molecule": "O=C(N/N=C/C=C/c1ccccc1[N+](=O)[O-])c1cc(-c2ccccc2)n[nH]1", "Potency": "inconclusive: 79.4 µM [inhibitor, single point]"}, {"molecule": "COC(=O)[C@H]1[C@H]2C[C@H]3c4[nH]c5ccccc5c4CCN3C[C@@H]2CC[C@@H]1O", "Potency": "inconclusive: 50.1 µM [inhibitor, partial curve]"}, {"molecule": "CCOc1cc(C2Nc3cccc4cccc(c34)N2)ccc1O", "Potency": "inconclusive: 50.1 µM [inhibitor, partial curve]"}, {"molecule": "Cc1c(-n2cc(C(=O)c3cc(F)ccc3O)cc(C#N)c2=O)c(=O)n(-c2ccccc2)n1C", "Potency": "inconclusive: 89.1 µM [inhibitor, single point]"}, {"molecule": "Cc1ccc(C)c(N2CN(CCC3=CCCCC3)CNC2=S)c1", "Potency": "inconclusive: 70.8 µM [inhibitor, single point]"}, {"molecule": "COc1ccc(N=c2scc(-c3ccc(OC)cc3)n2CCO)cc1", "Potency": "active: 31.6 µM"}, {"molecule": "Cc1ccc(Nc2nc(N)nc(CN3CCc4ccccc4C3)n2)cc1", "Potency": "inconclusive: 44.7 µM [inhibitor, partial curve]"}, {"molecule": "COc1ccc(NC2CCCN(C(=O)c3cccs3)C2)cc1", "note": "(configuration not stated)", "Potency": "inconclusive: 39.8 µM [inhibitor, partial curve]"}, {"molecule": "CCOc1cc(CNc2ccc3c(c2)OCCO3)cc(Br)c1OCC", "Potency": "active: 25.1 µM"}, {"molecule": "O=C(N/N=C/c1cn(-c2ccccc2)nc1-c1ccccc1)c1ccco1", "Potency": "inconclusive: 100 µM [inhibitor, single point]"}, {"molecule": "CCC(=O)Nc1nnc(CCc2ccccc2)s1", "activity change, negative = inhibition": "inactive: -2.17%"}, {"molecule": "CC(CC(=O)Nc1ccc(S(=O)(=O)N2CCOCC2)cc1)c1ccccc1", "note": "(configuration not stated)", "activity change, negative = inhibition": "inactive: -14.5%"}, {"molecule": "O=C1OC2(c3ccccc31)c1cc(I)c(O)c(I)c1Oc1c2cc(I)c(O)c1I", "Potency": "active: 10 µM"}, {"molecule": "COC(=O)c1c(C(=O)OC)c2ccccn2c1C(=O)c1ccc([N+](=O)[O-])cc1", "Potency": "inconclusive: 70.8 µM [inhibitor, single point]"}, {"molecule": "CSC1=NCCN1C(=O)c1ccc(Br)o1", "activity change, negative = inhibition": "inactive: -4.8%"}, {"molecule": "COC(=O)[C@H](C)[C@@H]1C[C@@]1(C)[C@@H](NC(=O)OCc1ccccc1)c1ccccc1", "activity change, negative = inhibition": "inactive: -4.93%"}, {"molecule": "O=C(Cn1nc(CNc2ccc(Cl)cc2)[n+]2c1CCCCC2)c1ccc(Cl)cc1", "Potency": "inconclusive: 79.4 µM [inhibitor, partial curve]"}, {"molecule": "O=C(Nc1nnc(S(=O)(=O)Nc2ccccc2)s1)c1ccccc1Cl", "Potency": "inconclusive: 3.55 µM [inhibitor, full curve, poor fit]"}, {"molecule": "Cc1cc(-c2n[nH]c(=S)n2/N=C/c2cccc([N+](=O)[O-])c2)n[nH]1", "activity change, negative = inhibition": "inactive: -11.7%"}, {"molecule": "CCc1c(C#N)c(SCCC(=O)Nc2ccc(C)cc2)nc2c1C(=O)CC(C)(C)C2", "activity change, negative = inhibition": "inactive: -19.5%"}, {"molecule": "CCNc1nc(NCC)n2c(SCC(=O)Nc3cccc(F)c3)nnc2n1", "Potency": "inconclusive: 89.1 µM [inhibitor, single point]"}, {"molecule": "Cc1cccc(C(=O)Nc2nnc(S(=O)(=O)N(C)Cc3ccco3)s2)c1", "Potency": "inactive"}, {"molecule": "Cc1oc(-c2cccc(Cl)c2)nc1CN1CCCC(C(=O)NCc2ccco2)C1", "note": "(configuration not stated)", "Potency": "inconclusive: 50.1 µM [inhibitor, partial curve]"}, {"molecule": "Cn1c(=O)c2c(nc(N3CCCCC3)n2CCSc2nc3ccccc3s2)n(C)c1=O", "Potency": "inconclusive: 70.8 µM [inhibitor, single point]"}, {"molecule": "O=C(c1ccccc1Br)N1CCN(c2ccc([N+](=O)[O-])c(N3CCOCC3)c2)CC1", "Potency": "inconclusive: 79.4 µM [inhibitor, partial curve]"}, {"molecule": "CN(C)c1ccc(N2C(=O)CSC2=S)cc1", "Potency": "active: 39.8 µM"}, {"molecule": "COc1ccccc1OC1=NS(=O)(=O)c2ccccc21", "Potency": "inconclusive: 89.1 µM [inhibitor, single point]"}, {"molecule": "O=C(CSc1nccn1Cc1ccc(Cl)cc1)Nc1ccc2c(c1)OCCO2", "Potency": "inconclusive: 17.8 µM [inhibitor, full curve]"}, {"molecule": "Cc1c(C(=S)Nc2ccccc2)cnn1-c1ccc([N+](=O)[O-])cc1", "Potency": "inconclusive: 44.7 µM [inhibitor, partial curve]"}, {"molecule": "COc1cccc(C(c2c(O)cc(C)n(Cc3ccco3)c2=O)N2CCN(c3ccccc3)CC2)c1", "note": "(configuration not stated)", "Potency": "inconclusive: 89.1 µM [inhibitor, single point]"}, {"molecule": "CCC(=O)N/N=C/c1ccc(-c2ccc(Cl)cc2)o1", "activity change, negative = inhibition": "inactive: -30.3%"}, {"molecule": "CCOCCCn1c(SCC(=O)Nc2ccc(C)cc2)nc2ccccc2c1=O", "activity change, negative = inhibition": "inactive: 6.96%"}, {"molecule": "O=C(Nc1ccc(F)cc1)C(=O)c1c(O)[nH]c2ccc([N+](=O)[O-])cc12", "Potency": "inconclusive: 50.1 µM [inhibitor, partial curve]"}, {"molecule": "CC1=CC(C)(C)Nc2ccc(C)cc21", "Potency": "active: 50.1 µM"}, {"molecule": "CCOC(=O)CN1C(=O)/C(=C/c2c(F)cccc2Cl)Oc2ccccc21", "activity change, negative = inhibition": "inactive: 67.6%"}, {"molecule": "COc1ccccc1CN1CCCC(C(=O)N2CCCCC2)C1", "note": "(configuration not stated)", "Potency": "active: 44.7 µM"}, {"molecule": "Cc1cc(N/N=C/c2ccco2)c2ccccc2n1", "activity change, negative = inhibition": "inactive: -11.3%"}, {"molecule": "CCCC(=O)OCc1cnc(C)c2oc(=O)c(C(=O)Nc3ccccc3)cc12", "Potency": "inconclusive: 89.1 µM [inhibitor, single point]"}, {"molecule": "N#C/C(=C/c1ccc([N+](=O)[O-])cc1)C(=O)Nc1ccccc1O", "Potency": "inconclusive: 44.7 µM [inhibitor, partial curve]"}, {"molecule": "OC(COc1ccccc1)CN1CCN(Cc2ccc3c(c2)OCO3)CC1", "note": "(configuration not stated)", "Potency": "inconclusive: 89.1 µM [inhibitor, single point]"}]}]}
